Where a chain is given by its changes, count along the chain named. “Also recorded” adds a separate entry of the source.
B1: 846T.1H2: murine anti-Gal3 antibody (antibody, V domains shown)
VH: QIQLVQSGPELKKPGETVKISCKASGYTFTNYGMNWVKQAPGKGLKWMGWINTNTGEPTYAEEFKGRFAFSLETSASTAYLQINNLKNEDTATYFCATGGGNWDFDYWGQGTTLTVSS
VL: DVVMTQTPLTLSVTIGQPASISCKSSQSLLYSNGKTYLNWLLQRPGQSPKRLIYLVSKLDSGVPDRFTGSGSGTDFTLKISRVEAEDLGVYYCVQGTHFPQTFGGGTKLEIK
B2: 4G2.2G6: murine anti-Gal3 antibody (antibody, V domains shown)
VH: QIQLVQSGPDLKKPGETVKISCKASGYTFTTYVMSWVKQAPGKDLKWMGWINTHSGVPTYADDFKGRFDFSLETSANTAFLQINNLKNEDTATYFCTRDGNDGDAMDNWGQGTSVTVSS
VL: B1 VL with S32T, N33D, N39S, L41F, T68S, V94L, G96S, Q101L, G105A, I111V
B3: 14H10.2C9: murine anti-Gal3 antibody (antibody, V domains shown)
VH: QIQLVQSGPELKKPGETVKISCKASGYTFTTYGMGWVKQAPGKDLKWMGWINTYSGVPTYADDFKGRFAFSLETSASTAYLQISNLKNEDTATYFCSTPYEYDGAYWGQGTLVTVSA
VL: B1 VL with L30F, Y31D, N33D, V94W, Q101L, G105A, I111M
B4: 3B11.2G2: murine anti-Gal3 antibody (antibody, V domains shown)
VH: QIQLVQSGPELKKPGETVKISCKTSGYKFKTYVMSWVKQAPGKALKWMGWINTYSGVPTYADDFKGRFAFSLETSASTAYLEIINLKNEDTATYFCARDGNYGDPMDYWGQGTSVTVSS
VL: B1 VL with T14A, S32T, T68S, V94L, G96S, Q101L, G105A, I111L
B5: 13H12.2F8: murine anti-Gal3 antibody (antibody, V domains shown)
VH: B3 VH with G35S, D44G, S84N, S97A, T98V
VL: B1 VL with L30F, Y31H, N33D, V94W, Q101L, G105A, I111M
modifications: VH of 13H12.2F8; VL of 13H12.2F8
notes: murine anti-Gal3 antibody

Target: Galectin-3 (Homo sapiens, UniProt P17931)
Sequence (P17931 whole entry): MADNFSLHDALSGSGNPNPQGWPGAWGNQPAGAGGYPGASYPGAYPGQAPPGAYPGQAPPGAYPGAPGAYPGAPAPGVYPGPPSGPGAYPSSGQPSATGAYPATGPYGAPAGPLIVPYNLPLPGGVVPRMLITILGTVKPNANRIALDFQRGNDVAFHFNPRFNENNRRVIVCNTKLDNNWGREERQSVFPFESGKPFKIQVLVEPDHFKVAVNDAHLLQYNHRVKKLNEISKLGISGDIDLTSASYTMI
Assay: SPR (BiacoreT200) binding affinity
Conditions: 25° C., read-out: hGal-3 KD
Description: GAL3-binding antibodies were evaluated for their binding affinity by SPR. Kinetics experiments were performed on BiacoreT200 at 25° C. in high performance mode. Ligand proteins, purified antibodies were captured onto a CM5 chip coupled with anti-human Fc or anti-mouse Fc antibody, three antibodies at a time onto flow cell #2, 3, and 4, respectively, while flow cell #1 was used as reference. The analyte Galectin-3 in HBS-EP buffer was injected over all four flow cells at concentrations of 100, 50, 25, 12.5, 6.25, 3.125 and 0 nM at a flow rate of 30 μL/min. The complex was allowed to associate and dissociate for 240 and 300 seconds, respectively. The surfaces were regenerated with a 30 second injection of 10 mM Glycine pH 1.7 (flow rate 30 μL/min). The data were fit to a simple 1:1 interaction model using the global data analysis option available within BiacoreT200 Evaluation software V2.0. The affinity of Gal3 monoclonal antibodies was confirmed to be […] 30 nM for all antibodies studied (Table 24.1). Antibodies with affinity less than 2E-7 were selected for further characterization.

Kd [nM] | Molecule
2.82 | B1
< 1 | B2
0.562 | B3
< 1 | B4
6.07 | B5

Target: T1, association of GAL3 and TIM3 (Homo sapiens, UniProt P17931)
T1 construct: full-length human Galectin-3 protein (Acro Biosystems, GA3-H5129); linker-spaced 6-histidine tag; purchased Acro Biosystems GA3-H5129 (Gal3); TM3-H5229 (TIM-3)
T1 sequence (P17931 2-250 limits assumed): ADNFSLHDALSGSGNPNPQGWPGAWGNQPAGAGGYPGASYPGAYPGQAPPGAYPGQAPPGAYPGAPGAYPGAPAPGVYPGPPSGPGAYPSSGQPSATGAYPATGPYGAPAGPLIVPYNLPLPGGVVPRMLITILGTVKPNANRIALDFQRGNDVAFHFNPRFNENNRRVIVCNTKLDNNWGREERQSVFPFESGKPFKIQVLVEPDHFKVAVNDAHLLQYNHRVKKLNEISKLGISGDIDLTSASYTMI
Assay: GAL3-TIM3 blocking ELISA (Examples 24, 27)
Type: binding
Conditions: 3 ug/mL antibody
Description: Positively scoring wells were evaluated for the ability to block association of GAL3 and TIM3. To identify GAL3-targeted antibodies with the ability to block the interaction of GAL3 and TIM3, purified GAL3 and TIM3 proteins were incubated in the presence of GAL3-immunization hybridoma supernatants described above, or without antibody, and protein interaction was evaluated by ELISA. Human Galectin-3 protein (Acro Biosystems, GA3-H5129) was diluted in PBS (Corning, 21-030-CM) to a concentration of 3 μg/ml and added to the wells of a 96-well ELISA plate (Thermo Fisher, 44-2404-21). After incubating the plate at 4° C. overnight, the plate was washed three times with PBST (PBS with 0.05% Tween 20 [VWR, 0777]). The plate was then blocked for an hour with 2% BSA (EMD Millipore, 126609) in PBST at room temperature with gentle rocking. Thereafter, the 2% BSA in PBST was discarded and antibody or inhibitor (3-fold dilutions beginning at 20 μg/ml, 60 μg/ml, or 180 μM) in 2% BSA in PBST was added to the wells. Afterwards, 2 μg/ml of human TIM3 (Aero Biosystems, TM3-H5229) in 2% BSA in PBST was added to the antibody or inhibitor in the wells in a 1:1 ratio. The plate was incubated for an hour at room temperature with gentle rocking. Thereafter, the plate was washed three times with PBST, and 0.3 μg/ml of human TIM3 Biotinylated Antibody (R&D Systems, BAF2365) in 2% BSA in PBST was added to the wells. The plate was incubated for an hour with gentle rocking and then washed three times with PBST. Avidin-HRP (1:2000) was then added to the wells. The plate was incubated at room temperature for an hour with gentle rocking and then washed three times with PBST. TMB substrate (Thermo Scientific, 34029) was then added to each well. The reaction was stopped with 1M HCl (JT Baker, 5620-02) and read using a plate reader (Molecular Devices) at absorbance of 450 nm.

GAL3-TIM3 Blocking @ 3 ug/mL [%] | Molecule
81 | B1
48 | B2
44 | B3
33 | B4
57 | B5

Test system: hGal3 peptide
Assay: Gal3 peptide library ELISA (Example 25)
Type: binding, human
Conditions: hGal3 peptide No. bound
Description: To identify the epitopes to which Gal3 antibodies with and without Gal3-TIM3 blocking activity bound, a library of 20 amino acid peptides representing portions of Gal3, summarized in Table 24.1, was produced and the ability to bind Gal3 antibodies was evaluated by ELISA.
At least 2 μg/ml of hGal3 peptide in 50 μl of PBS or 0.1 μg/ml of full-length human Gal3 protein (GenScript) and human Galectin-3 protein (Acro Biosystems, GA3-H5129) were diluted in PBS (Corning, 21-030-CM) to concentrations of at least 2 μg/ml or 0.1 μg/ml, respectively, and added to the wells of a 96-well ELISA plate (Thermo Fisher, 44-2404-21). After incubating the plate at 4° C. overnight, the plate was washed three times with PBST (PBS with 0.05% Tween 20 [VWR, 0777]). The plate was then blocked for an hour with 2% BSA (EMD Millipore, 126609) in PBST at room temperature with gentle rocking. Thereafter, the 2% BSA in PBST was discarded and human Galectin-3 hybridoma supernatants or antibodies were diluted in 2% BSA in PBST to concentrations of at least 0.1 μg/ml and added to the wells. The plate was incubated for an hour at room temperature with gentle rocking and then washed three times with PBST. Afterwards, Goat Anti-Mouse IgG-HRP (Jackson ImmunoResearch, 115-036-1461) or Goat Anti-Rat IgG HRP (abcam, ab205720) diluted in 2% BSA in PBST (1:4000) were added to the wells. The plate was incubated for 30 minutes to 1 hour at room temperature with gentle rocking and then washed three times with PB ST. TMB substrate (Thermo Scientific, 34029) was then added to each well. The reaction was stopped with 1M HCl (JT Baker, 5620-02) and read using a plate reader (Molecular Devices) at absorbance of 450 nm.

Molecule | Epitope Mapping
B2 | 4

Same assay, conditions: peptide array ELISA

Molecule | Gal3 peptide bound
B1 | peptide 6
B2 | peptide 4
B3 | peptide 6; also recorded: peptide 7
B4 | peptide 4
B5 | peptide 6; also recorded: peptide 7

Same assay, conditions: peptide array ELISA; listed as 3B11.2D2

Molecule | Gal3 peptide bound
B4 | peptide 6

Target: human Gal3-His (Homo sapiens, UniProt P17931)
Sequence (P17931 whole entry): as the sequence (P17931 whole entry) above
Assay: Antibody binning by biolayer interferometry (Gator)
Type: binding
Conditions: antibody competition
Description: To determine whether Gal3-binding antibodies with Gal3-TIM3 blocking activity bind to the same or overlapping regions of the Gal3 molecule, antibody binning assays were performed to assess the ability of antibodies to simultaneously bind Gal3. Amine-reactive probes were loaded onto a Gator biosensor (Probe Life, Palo Alto, Calif.), equilibrated in dH20 for 60 seconds, dipped into 100 μl EDC 0.2M/NHS 0.05M activation buffer for 30 seconds, then dipped into a solution of […] human Gal3-His in 10 mM NaOAc buffer, pH 5 until binding was saturated, and quenched in 1 M ethanolamine pH 8.5 for 300 seconds. Following Gal3-His loading, tips were dipped in 20 μg/mL saturating antibody, then successively dipped into 5 μg/mL competing antibody.

Bin | Molecule
1 | B1
6 | B2
2 | B3
2 | B5

Reference: patent US20220380473A1, “ANTI-GAL3 ANTIBODIES AND USES THEREOF” (TrueBinding, Inc., priority 2019, published 2022)
